# This is one part of the list.
# B1: Si Bti9 1b-HA (Solanum lycopersicum) (protein)
# chain: MFESRPRSVLSLGVFVILVYLSSVPLPVNSQCNRGCDLALASFYVWRGSNLTLISEMFSTSIADIVSYNNRDNIPNQDSVIAGTRINIPFRCDCLNDGEVLGHAFPYRVKSGDTYDLVARNYSDLTTAQWMMKFNSYPENNIPNTVNLSVVVNCSCGNSDVSKDFGLFVTYPVRAEDNLTSVASAANVSEDIIRRYNPAAVSILDIGQGIIYIPGRDRNGNFPPLPTSTDGLSGGAKAPLFFNPAFLYKVVELKLAGRSRTSGYPYDVPDYAGYPYDVPDYALEVLFQ
# Columns and labels:
# Assay in all cases: glycan array binding signal (z-score within array); higher = stronger binding
# Details in all cases: glycan notation: IUPAC condensed, linker removed
# [1] = molecular target: GlcNAc(b1-2)Gal(b1-3)GalNAc
# In short: (§1)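 Glycan array data came from 3228 arrays in the Consortium for Functional Glycomics database, and only arrays with an available protein sequence were kept. Glycan names were put into IUPAC-condensed notation, and columns mapping to the same glycan were averaged. The binding signal is a within-array Z-score, averaged across arrays of one protein sequence run at different concentrations or buffers and across linkers. A negative Z-score can be read as non-binding.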
# [2] = molecular target: GlcNAc(b1-2)Man(a1-3)[GlcNAc(b1-2)Man(a1-6)]Man(b1-4)GlcNAc(b1-4)GlcNAc
# In short: as §1
# [3] = molecular target: GlcNAc(b1-2)Man(a1-3)[GlcNAc(b1-2)Man(a1-6)]Man(b1-4)GlcNAc(b1-4)[Fuc(a1-6)]GlcNAc
# In short: as §1
# [4] = molecular target: GlcNAc(b1-2)Man(a1-3)[GlcNAc(b1-4)][GlcNAc(b1-2)Man(a1-6)]Man(b1-4)GlcNAc(b1-4)GlcNAc
# In short: as §1
# [5] = molecular target: GlcNAc(b1-2)Man(a1-3)[GlcNAc(b1-4)][GlcNAc(b1-2)Man(a1-6)]Man(b1-4)GlcNAc(b1-4)[Fuc(a1-6)]GlcNAc
# In short: as §1
# [6] = molecular target: GlcNAc(b1-2)[GlcNAc(b1-4)]Man(a1-3)[GlcNAc(b1-2)Man(a1-6)]Man(b1-4)GlcNAc(b1-4)GlcNAc
# In short: as §1
# [7] = molecular target: GlcNAc(b1-2)[GlcNAc(b1-4)]Man(a1-3)[GlcNAc(b1-4)][GlcNAc(b1-2)Man(a1-6)]Man(b1-4)GlcNAc(b1-4)GlcNAc
# In short: as §1
# [8] = molecular target: GlcNAc(b1-2)[GlcNAc(b1-4)]Man(a1-3)[GlcNAc(b1-4)][GlcNAc(b1-2)[GlcNAc(b1-6)]Man(a1-6)]Man(b1-4)GlcNAc(b1-4)GlcNAc
# In short: as §1
# [9] = molecular target: GlcNAc(b1-2)[GlcNAc(b1-4)]Man(a1-3)[GlcNAc(b1-4)][GlcNAc(b1-2)[GlcNAc(b1-6)]Man(a1-6)]Man(b1-4)GlcNAc(b1-4)[Fuc(a1-6)]GlcNAc
# In short: as §1
# [10] = molecular target: GlcNAc(b1-2)[GlcNAc(b1-6)]Man(a1-6)[GlcNAc(b1-2)Man(a1-3)]Man(b1-4)GlcNAc(b1-4)GlcNAc
# In short: as §1
# [11] = molecular target: GlcNAc(b1-2)[GlcNAc(b1-6)]Man(a1-6)[GlcNAc(b1-2)Man(a1-3)]Man(b1-4)GlcNAc(b1-4)[Fuc(a1-6)]GlcNAc
# In short: as §1
# [12] = molecular target: GlcNAc(b1-2)[GlcNAc(b1-6)]Man(a1-6)[GlcNAc(b1-4)][GlcNAc(b1-2)Man(a1-3)]Man(b1-4)GlcNAc(b1-4)GlcNAc
# In short: as §1
# [13] = molecular target: GlcNAc(b1-3)Fuc
# In short: as §1
# [14] = molecular target: GlcNAc(b1-3)Gal
# In short: as §1
# [15] = molecular target: GlcNAc(b1-3)Gal(b1-3)GalNAc
# In short: as §1
# [16] = molecular target: GlcNAc(b1-3)Gal(b1-4)Glc
# In short: as §1
# [17] = molecular target: GlcNAc(b1-3)Gal(b1-4)GlcNAc
# In short: as §1
# [18] = molecular target: GlcNAc(b1-3)Gal(b1-4)GlcNAc(b1-2)Man(a1-3)[GlcNAc(b1-3)Gal(b1-4)GlcNAc(b1-2)Man(a1-6)]Man(b1-4)GlcNAc(b1-4)GlcNAc
# In short: as §1
# [19] = molecular target: GlcNAc(b1-3)Gal(b1-4)GlcNAc(b1-2)Man(a1-3)[GlcNAc(b1-3)Gal(b1-4)GlcNAc(b1-2)Man(a1-6)]Man(b1-4)GlcNAc(b1-4)[Fuc(a1-6)]GlcNAc
# In short: as §1
# [20] = molecular target: GlcNAc(b1-3)Gal(b1-4)GlcNAc(b1-2)[GlcNAc(b1-3)Gal(b1-4)GlcNAc(b1-6)]Man(a1-6)[GlcNAc(b1-3)Gal(b1-4)GlcNAc(b1-2)Man(a1-3)]Man(b1-4)GlcNAc(b1-4)GlcNAc
# In short: as §1
# [21] = molecular target: GlcNAc(b1-3)Gal(b1-4)GlcNAc(b1-3)Gal(b1-4)GlcNAc
# In short: as §1
# [22] = molecular target: GlcNAc(b1-3)Gal(b1-4)GlcNAc(b1-3)Gal(b1-4)GlcNAc(b1-2)Man(a1-3)[GlcNAc(b1-3)Gal(b1-4)GlcNAc(b1-3)Gal(b1-4)GlcNAc(b1-2)Man(a1-6)]Man(b1-4)GlcNAc(b1-4)GlcNAc
# In short: as §1
# [23] = molecular target: GlcNAc(b1-3)Gal(b1-4)GlcNAc(b1-3)Gal(b1-4)GlcNAc(b1-2)Man(a1-3)[GlcNAc(b1-3)Gal(b1-4)GlcNAc(b1-3)Gal(b1-4)GlcNAc(b1-2)Man(a1-6)]Man(b1-4)GlcNAc(b1-4)[Fuc(a1-6)]GlcNAc
# In short: as §1
# [24] = molecular target: GlcNAc(b1-3)Gal(b1-4)GlcNAc(b1-3)Gal(b1-4)GlcNAc(b1-2)[GlcNAc(b1-3)Gal(b1-4)GlcNAc(b1-3)Gal(b1-4)GlcNAc(b1-6)]Man(a1-6)[GlcNAc(b1-3)Gal(b1-4)GlcNAc(b1-3)Gal(b1-4)GlcNAc(b1-2)Man(a1-3)]Man(b1-4)GlcNAc(b1-4)[Fuc(a1-6)]GlcNAc
# In short: as §1
# [25] = molecular target: GlcNAc(b1-3)Gal(b1-4)GlcNAc(b1-3)Gal(b1-4)GlcNAc(b1-3)Gal(b1-4)GlcNAc(b1-2)Man(a1-3)[GlcNAc(b1-3)Gal(b1-4)GlcNAc(b1-3)Gal(b1-4)GlcNAc(b1-3)Gal(b1-4)GlcNAc(b1-2)Man(a1-6)]Man(b1-4)GlcNAc(b1-4)GlcNAc
# In short: as §1
# [26] = molecular target: GlcNAc(b1-3)Gal(b1-4)GlcNAc(b1-3)Gal(b1-4)GlcNAc(b1-3)Gal(b1-4)GlcNAc(b1-2)Man(a1-3)[GlcNAc(b1-3)Gal(b1-4)GlcNAc(b1-3)Gal(b1-4)GlcNAc(b1-3)Gal(b1-4)GlcNAc(b1-2)Man(a1-6)]Man(b1-4)GlcNAc(b1-4)[Fuc(a1-6)]GlcNAc
# In short: as §1
# [27] = molecular target: GlcNAc(b1-3)Gal(b1-4)GlcNAc(b1-3)Gal(b1-4)GlcNAc(b1-3)Gal(b1-4)GlcNAc(b1-2)[GlcNAc(b1-3)Gal(b1-4)GlcNAc(b1-3)Gal(b1-4)GlcNAc(b1-3)Gal(b1-4)GlcNAc(b1-6)]Man(a1-6)[GlcNAc(b1-3)Gal(b1-4)GlcNAc(b1-3)Gal(b1-4)GlcNAc(b1-3)Gal(b1-4)GlcNAc(b1-2)Man(a1-3)]Man(b1-4)GlcNAc(b1-4)[Fuc(a1-6)]GlcNAc
# In short: as §1
# [28] = molecular target: GlcNAc(b1-3)Gal(b1-4)GlcNAc(b1-3)Gal(b1-4)GlcNAc(b1-3)Gal(b1-4)GlcNAc(b1-3)Gal(b1-4)GlcNAc(b1-2)Man(a1-3)[GlcNAc(b1-3)Gal(b1-4)GlcNAc(b1-3)Gal(b1-4)GlcNAc(b1-3)Gal(b1-4)GlcNAc(b1-3)Gal(b1-4)GlcNAc(b1-2)Man(a1-6)]Man(b1-4)GlcNAc(b1-4)GlcNAc
# In short: as §1
# [29] = molecular target: GlcNAc(b1-3)Gal(b1-4)GlcNAc(b1-3)Gal(b1-4)GlcNAc(b1-3)Gal(b1-4)GlcNAc(b1-3)Gal(b1-4)GlcNAc(b1-2)Man(a1-3)[GlcNAc(b1-3)Gal(b1-4)GlcNAc(b1-3)Gal(b1-4)GlcNAc(b1-3)Gal(b1-4)GlcNAc(b1-3)Gal(b1-4)GlcNAc(b1-2)Man(a1-6)]Man(b1-4)GlcNAc(b1-4)[Fuc(a1-6)]GlcNAc
# In short: as §1
# [30] = molecular target: GlcNAc(b1-3)Gal(b1-4)GlcNAc(b1-3)Gal(b1-4)GlcNAc(b1-3)Gal(b1-4)GlcNAc(b1-3)Gal(b1-4)GlcNAc(b1-2)[GlcNAc(b1-3)Gal(b1-4)GlcNAc(b1-3)Gal(b1-4)GlcNAc(b1-3)Gal(b1-4)GlcNAc(b1-3)Gal(b1-4)GlcNAc(b1-6)]Man(a1-6)[GlcNAc(b1-3)Gal(b1-4)GlcNAc(b1-3)Gal(b1-4)GlcNAc(b1-3)Gal(b1-4)GlcNAc(b1-3)Gal(b1-4)GlcNAc(b1-2)Man(a1-3)]Man(b1-4)GlcNAc(b1-4)[Fuc(a1-6)]GlcNAc
# In short: as §1
# [31] = molecular target: GlcNAc(b1-3)Gal(b1-4)GlcNAc(b1-3)Gal(b1-4)GlcNAc(b1-3)GalNAc
# In short: as §1
# [32] = molecular target: GlcNAc(b1-3)Gal(b1-4)GlcNAc(b1-3)GalNAc
# In short: as §1
# [33] = molecular target: GlcNAc(b1-3)Gal(b1-4)GlcNAc(b1-3)[GlcNAc(b1-3)Gal(b1-4)GlcNAc(b1-3)]GalNAc
# In short: as §1
# [34] = molecular target: GlcNAc(b1-3)Gal(b1-4)GlcNAc(b1-6)[Gal(b1-3)]GalNAc
# In short: as §1
# [35] = molecular target: GlcNAc(b1-3)Gal(b1-4)GlcNAc(b1-6)[GlcNAc(b1-3)Gal(b1-3)]GalNAc
# In short: as §1
# [36] = molecular target: GlcNAc(b1-3)Gal(b1-4)GlcNAc(b1-6)[GlcNAc(b1-3)]Gal(b1-4)GlcNAc
# In short: as §1
# [37] = molecular target: GlcNAc(b1-3)GalNAc
# In short: as §1
binder,measurement,setting,value
B1,glycan array binding signal (z-score),[1],-0.224
same,glycan array binding signal (z-score),[2],-0.29
same,glycan array binding signal (z-score),[3],1.05
same,glycan array binding signal (z-score),[4],-0.497
same,glycan array binding signal (z-score),[5],-0.354
same,glycan array binding signal (z-score),[6],-0.568
same,glycan array binding signal (z-score),[7],-0.436
same,glycan array binding signal (z-score),[8],-0.547
same,glycan array binding signal (z-score),[9],-0.537
same,glycan array binding signal (z-score),[10],-0.198
same,glycan array binding signal (z-score),[11],-0.253
same,glycan array binding signal (z-score),[12],-0.366
same,glycan array binding signal (z-score),[13],-0.381
same,glycan array binding signal (z-score),[14],-0.326
same,glycan array binding signal (z-score),[15],-0.271
same,glycan array binding signal (z-score),[16],-0.571
same,glycan array binding signal (z-score),[17],-0.5
same,glycan array binding signal (z-score),[18],-0.03
same,glycan array binding signal (z-score),[19],0.24
same,glycan array binding signal (z-score),[20],0.689
same,glycan array binding signal (z-score),[21],-0.418
same,glycan array binding signal (z-score),[22],2.7
same,glycan array binding signal (z-score),[23],0.176
same,glycan array binding signal (z-score),[24],0.039
same,glycan array binding signal (z-score),[25],-0.216
same,glycan array binding signal (z-score),[26],0.086
same,glycan array binding signal (z-score),[27],-0.157
same,glycan array binding signal (z-score),[28],-0.077
same,glycan array binding signal (z-score),[29],-0.141
same,glycan array binding signal (z-score),[30],-0.353
same,glycan array binding signal (z-score),[31],-0.174
same,glycan array binding signal (z-score),[32],-0.067
same,glycan array binding signal (z-score),[33],-0.032
same,glycan array binding signal (z-score),[34],-0.066
same,glycan array binding signal (z-score),[35],0.076
same,glycan array binding signal (z-score),[36],-0.43
same,glycan array binding signal (z-score),[37],-0.395
